Laboratory results taken from PubChem BioAssay AID1159614 (National Center for Advancing Translational Sciences (NCATS), 2016).
In all, about 45,000 compounds went through this assay and about 65 (0.1%) were called active. Calls follow the shape of the dose curve; as a rule, active = well fitted activation curve with a large enough effect; inconclusive = small, poorly fitted or top-dose-only effect; inactive = no such curve, though single readings can be large or run the other way. This is one part of the list.

Biological target: Galactocerebrosidase (Homo sapiens) (UniProt P54803)
Experiment: A Novel Cell-Based Assay to Identify Small Molecules for B -Galactocerebrosidase; also: 0% is about no effect; nearly all actives have a fitted effect of over 65% in size
Conditions: 145M-Twi-hGALC-G270D cells (Twitcher mouse brain line with human GALC G270D), HMU-beta-Gal fluorescence, 48 h; series mostly up to 57.5 µM; activation: at the top concentration
In short: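 Fluorescence readout: HMU-β-gal cleavage by mutant GALC (0.1 mM final, citrate/phosphate pH 5.2 with 1 mg/mL taurocholate), stopped with carbonate/bicarbonate plus Triton X-100. Cells: murine Twitcher 145M-Twi expressing human G270D GALC; qHTS for activators.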

Sequence of UniProt P54803 (P54803 whole entry, looked up): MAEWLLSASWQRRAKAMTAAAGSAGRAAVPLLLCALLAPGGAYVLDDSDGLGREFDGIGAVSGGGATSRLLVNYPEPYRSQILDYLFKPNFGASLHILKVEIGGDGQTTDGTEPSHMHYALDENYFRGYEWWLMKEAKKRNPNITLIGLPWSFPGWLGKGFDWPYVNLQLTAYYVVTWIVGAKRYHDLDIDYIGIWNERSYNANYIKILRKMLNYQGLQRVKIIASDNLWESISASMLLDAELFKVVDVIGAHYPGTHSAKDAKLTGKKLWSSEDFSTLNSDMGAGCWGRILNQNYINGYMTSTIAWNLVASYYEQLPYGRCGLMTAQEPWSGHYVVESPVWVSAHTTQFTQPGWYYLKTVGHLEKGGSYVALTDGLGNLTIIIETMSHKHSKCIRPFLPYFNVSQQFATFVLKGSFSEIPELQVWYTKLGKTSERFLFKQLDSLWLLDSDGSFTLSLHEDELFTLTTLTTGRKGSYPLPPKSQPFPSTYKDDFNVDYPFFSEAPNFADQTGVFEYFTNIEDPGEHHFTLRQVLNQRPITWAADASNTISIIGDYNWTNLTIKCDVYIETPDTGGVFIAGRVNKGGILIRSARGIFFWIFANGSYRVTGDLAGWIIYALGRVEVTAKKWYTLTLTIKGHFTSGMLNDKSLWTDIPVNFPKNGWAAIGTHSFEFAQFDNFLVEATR

activation, inactive:
CCc1ccccc1NC(=O)CCC(=O)N1CC(C)Oc2ccc(C)cc21 (stereo unspecified) -7.68%, COc1ccc(CCNCc2c(C(=O)O)c(C)n(Cc3cccc(Cl)c3)c2C)c(OC)c1OC -10.2%, COc1ccc(NC(=O)CCNS(=O)(=O)c2ccc3c(c2)CCCC(=O)N3)cc1 -15.6%, Cc1ccc(-c2cc3ncc4c(n3n2)-c2cc(Cl)ccc2OC4)cc1 3.14%, CCn1nnc2cc(C(=O)Nc3cc(C)ccc3C)ccc21 -10.7%, O=C(NCc1ccc(F)cc1)C(=O)Nc1ccc2nc3n(c(=O)c2c1)CCCCC3 -8.99%, CCOc1ccc(CC(=O)NCc2ccc3c(c2)CCN3C(=O)c2ccccc2)cc1OCC -16.1%, COc1ccc(NC(=O)CC2C(=O)N(c3cccc(OC)c3)C(=O)N2CCC2=CCCCC2)cc1 (stereo unspecified) -13.4%, O=C(Cn1cc(S(=O)(=O)Cc2ccccc2Cl)c2ccccc21)NCCc1ccccc1 -10.4%, Cc1ccccc1CNC(=O)CCC(=O)N1CCSc2ccccc21 5.44%, CCOc1ccccc1CNS(=O)(=O)c1cc2c(cc1C)NC(=O)CO2 -11.9%, COc1ccc(NC(=O)c2c(NC(=O)COc3ccccc3)sc3c2CCCCC3)cc1 -19.6%, COc1ccccc1C(=O)Nc1ccc(S(=O)(=O)Nc2ncccn2)cc1 -11.3%, Cc1cc(F)ccc1NC(=O)CCn1nc(C)c(S(=O)(=O)N2CCCCC2)c1C -4.53%, Cc1ccc(C)c(N2CCN(C(=O)C(CC(C)C)NS(=O)(=O)c3ccc4nc(C)sc4c3)CC2)c1 (stereo unspecified) -19%, Cn1c([N+](=O)[O-])cnc1COC(N)=O -8%, NC(=O)CSc1nc2ccc(NC(=O)COc3ccccc3Cl)cc2s1 -11.9%, CS(=O)(=O)N(Cc1ccccc1)c1ccc(C(=O)Nc2ccc(Cl)cc2)cc1 -11.5%, Cc1cccc(-n2nc(C)c(C(=O)N3CCN(c4ccccc4)CC3)c2-n2cccc2)c1 -0.034%, Cc1ccc(C)c(N2CCN(c3nc4ccc(C(=O)c5ccccc5)cc4n4cnnc34)CC2)c1 -13.6%, CCOC(=O)c1cnc2c(C)cccc2c1Nc1ccc(OC(C)C)cc1 4%, Cn1c(=O)[nH]c(=O)c2c1nc(CN1CCN(c3ccccc3F)CC1)n2Cc1ccc(F)cc1 -22.3%, COc1ccccc1CN(Cc1c(Cl)cccc1Cl)S(=O)(=O)c1ccc(Br)cc1 -5.93%, Cc1cccc(OCCCn2c(CCNC(=O)C3CCCCC3)nc3ccccc32)c1 -22.7%, COc1ccc(Cl)cc1NC(=O)c1cc(S(=O)(=O)N(C)Cc2ccccc2)ccc1F -17.8%, COc1cccc(-c2nc(SCC(=O)Nc3ccc4c(c3)OCCO4)c(-c3ccc(C)cc3)[nH]2)c1 -13.5%, CCOc1ccc(-c2cc(C(=O)NCCc3ccc(OC)c(OC)c3)c3c(-c4ccc(F)cc4)[nH]nc3n2)cc1 -14.1%, Cc1ccc(Cl)cc1NC(=O)c1oc2ccc(S(=O)(=O)N3CCCCCC3)cc2c1C 0.803%, Cn1cc(S(=O)(=O)c2cccc(Cl)c2)c(=O)c2cc(F)c(N3CCCCC3)cc21 -9.23%, O=C(NCCc1ccc(Cl)cc1)c1ccc(CSCc2cccc(Cl)c2)o1 -15.9%, CCCN1C(=O)C(Cc2nc3ccccc3c(=O)n2-c2ccc(OC)cc2)c2cc(C)ccc21 (stereo unspecified) -8.98%, CCc1cccc(C)c1NC(=O)CSc1nc2c(c(=O)[nH]1)CCC2 1.69%, Cc1cc(C)cc(OCC(=O)N2CCC(c3nc4ccccc4s3)CC2)c1 -18.4%, Cc1ccc(C(=O)Nc2ccc3oc(-c4ccccc4C)nc3c2)cc1 -8.28%, CC(=O)N1CCc2c(sc3c2c(=O)n(-c2ccc(C)cc2)c(=O)n3Cc2ccccc2C)C1 -8.13%, CCCCNC(=O)c1ccc2c(c1)NC(=O)C(CS(=O)(=O)Cc1ccc(C)cc1)N2 (stereo unspecified) -2.17%, O=C(NCC(c1ccco1)S(=O)(=O)c1cccs1)c1ccc(Cl)cc1 (stereo unspecified) -5.07%, Cc1cc(C(=O)NCc2ccccc2Cl)c2c(C)nn(-c3cccc(F)c3)c2n1 -13.5%, Cc1ccc2oc(=O)n(CCNC(=O)Nc3ccc(Cl)cc3)c2c1 -18.2%, CCCN(C(=O)Nc1cn(CC(C)C)c(=O)c2ccccc12)c1ccc(F)cc1 -22.3%, Cc1cc(C)cc(NC(=O)CSc2nc3sc4c(c3c(=O)[nH]2)CCCC4)c1 19.3%, CCC1CN(C(=O)Nc2cc(Cl)c(OC)cc2OC)c2ccccc2O1 (stereo unspecified) -12.2%, CCc1ccc(C2c3c(oc4cc(C)c(C)cc4c3=O)C(=O)N2c2nc(C)c(C(=O)OC)s2)cc1 (stereo unspecified) -21.7%, Cc1cc(Cl)ccc1NC(=O)CCCn1nc(C)c2c(C)n(-c3ccccc3)nc2c1=O -30.2%, COc1cc(OC)c(C2C(C(=O)Nc3ccccc3)=C(C)Nc3ncnn32)cc1OC (stereo unspecified) -14.7%, COc1ccc(-c2noc(CC(=O)Nc3ccc(C)c(F)c3)n2)cc1 -13.7%, CC(C)C(=O)OCc1cc(=O)n2nc(C3CC3)sc2n1 -3.25%, CCCCN(C)S(=O)(=O)c1ccc(C(=O)Nc2ccc(-c3nc4ccc(C)cc4s3)cc2)cc1 -15.3%, CCN1CCN(c2oc(/C=C/c3cc(OC)c(OC)c(OC)c3)nc2C#N)CC1 -3.91%, Cc1cccc(C)c1NC(=O)CN1CCCCCC1 -7.14%, Cc1cc(NC(=O)c2cccn2-c2nnc(N3CCCCC3)s2)ccc1Br -14.2%, COc1cc(C2Nc3ccccc3-c3nnc(SCc4ccc(C)cc4)nc3O2)cc(OC)c1O (stereo unspecified) -2.94%, CCc1ccc(CNC(=O)c2cnc3c(C)cccn3c2=O)cc1 -3.1%, Cc1c(Cl)cccc1NC(=O)C1CCN(c2nc3ccccc3[nH]2)CC1 -0.824%, Cc1ccc(Nc2cc(C)c(C#N)c3nc4ccccc4n23)c(C)c1 -8.1%, COC(=O)c1sccc1S(=O)(=O)N(CC(=O)Nc1ccccc1)c1ccccc1 -12%, CCCC(=O)Nc1cccc(-c2cn3c(C)csc3n2)c1 -18%, Cc1ccc(Cn2c(=O)c3cccnc3n(CC(=O)Nc3cc(Cl)ccc3C)c2=O)cc1 -1.34%, CSc1ccc(CCNC(=O)c2cc3cc4cc(C)ccc4nc3s2)cc1 -12%, Cc1c(Cl)cccc1NC(=O)Cn1c(=O)n(Cc2nc(-c3ccccc3)no2)c(=O)c2cc3c(cc21)OCO3 6.46%, CCc1nn(CC(=O)NCCCc2ccccc2)c(=O)c2cc3ccccc3n12 -14.2%, Cc1cccc(Nc2nnc(-c3ccc(C)c(S(=O)(=O)N4CCN(C)CC4)c3)c3ccccc23)c1 -9.28%, Cc1cccc(C(C)C)c1NC(=O)c1ccc2c(c1)CCN2S(C)(=O)=O -7.73%, Cc1ccc(Cl)cc1NC(=O)Cn1c(=O)n(C(C)C)c(=O)c2oc3ccccc3c21 5.93%, Cc1nn2c(=O)cc(COC(=O)c3cccc(NC(=O)c4ccc(F)cc4)c3)nc2s1 -1.15%, O=C(O)CCc1ccc(-c2ccccc2)n1-c1ccc(C(=O)O)cc1 2.77%, CC(=O)Nc1cccc(NC(=O)CSc2ccc(-c3sc(-c4ccccc4)nc3C)nn2)c1 -11.2%, CC(C)CCNC(=O)C(=O)Nc1c2c(nn1-c1ccc(Cl)cc1)CSC2 -22.8%, CCn1c(CN2CCC(C)CC2)nc2cc(NC(=O)c3ccc([N+](=O)[O-])cc3)ccc21 -16.3%, COc1cccc(NC(=O)C2CCN(S(=O)(=O)c3ccc4[nH]c5c(c4c3)CCCCC5)CC2)c1 5.24%, COC(=O)c1ccccc1NC(=O)c1nn(-c2ccc(OC)cc2)c(=O)c2c1c1ccccc1n2C 1.08%, COc1ccccc1NC(=O)C1CCCN(c2ncnc3onc(-c4ccc(F)cc4)c23)C1 (stereo unspecified) -16.8%, CCC(C)NC(=O)c1c(C)oc2nc(C)nc(N3CCOCC3)c12 (stereo unspecified) -13.5%, Cc1ccc(NC(=O)c2ccc3snnc3c2)cc1C -0.535%, CCOC(=O)C(C)Sc1nc(-c2ccccc2)ccc1C#N (stereo unspecified) 0.872%, CCOC(=O)c1ccc(NC(=O)Cn2c3ncccc3c(=O)n2-c2ccc(C)c(C)c2)cc1 -22.7%, Cc1cc(C)n(-c2nc(C)c(C)c(=O)n2CC(=O)Nc2cccc([N+](=O)[O-])c2)n1 -24.5%, COc1ccc(-c2cc(C(=O)NCCc3ccc(OC)c(OC)c3)c3c(-c4ccc(F)cc4)[nH]nc3n2)cc1 -10%, CCOc1ccc(S(=O)(=O)N2CCC(c3ccncc3)CC2)cc1 -2.08%, COc1cccc(NC(=O)c2oc3ccc(S(=O)(=O)N4CCCCCC4)cc3c2C)c1 4.06%, COc1ccc(S(=O)(=O)NCC(c2ccc(N(C)C)cc2)N2CCc3ccccc32)cc1F (stereo unspecified) 3.25%, CCOC(=O)c1ccccc1NC(=O)COC(=O)CC(C)(C)CC1=NS(=O)(=O)c2ccccc2N1 -20.4%, Cc1cc(C)n2nc(CNS(=O)(=O)c3ccccc3)nc2n1 1.93%, CCOC(=O)c1cccc(NC(=O)N2CC=C(c3c[nH]c4ccccc34)CC2)c1 -15.7%, CC(=O)c1ccc(NC(=O)CC2Oc3ccc(C)cc3NC2=O)cc1 (stereo unspecified) -31.9%, CCOC(=O)Cc1c(C(=O)OCC)nnc2c(-c3ccccc3)c(C)nn12 -9.14%, COCCNc1oc(-c2ccc(OC)cc2)nc1C#N -12.8%, COc1ccc(OC)c(NC(=O)N2CC3CCCN3c3ccccc32)c1 (stereo unspecified) -7.99%, Cc1cc(Nc2ccc(Br)c(C)c2)n2nc(-c3ccco3)nc2n1 -6.43%, CCCNC(=O)N1[C@H](c2cccs2)[C@@H](C)C(=O)[C@@H](C)[C@@H]1c1cccs1 -4.61%, CCN(CC)C(=O)Cn1c(=O)n(CCc2ccccc2)c(=O)c2ccccc21 0.445%, COc1cccc(N2CCN(c3ncnc4c3c(-c3ccccc3)cn4-c3cccc(C(F)(F)F)c3)CC2)c1 -12.6%, Cc1cccc(NC(=O)CN2C(=O)CSc3ccc(S(=O)(=O)N4CCCC4)cc32)c1C -14.5%, COc1cccc(NC(=O)CSc2c3c(nc4ccccc24)CCCC3)c1 -13.2%, CCOc1ccc(N(CC)S(=O)(=O)N2CCCC(C(=O)Nc3ccc(OC)c(Cl)c3)C2)cc1 (stereo unspecified) -14.5%, Cc1nn(C(=O)c2cccc([N+](=O)[O-])c2C)c(C)c1S(=O)(=O)N1CCCCCC1 -16.5%
